Results taken from PubChem BioAssay AID686978 (National Center for Advancing Translational Sciences (NCATS), 2013).
The whole screen tested about 420,000 compounds, of which about 64,000 (15%) were called active. The inconclusive results got no clear call from the source; some entries with a clear call stand among them for comparison. The call rests on the fitted dose curve; in most records, active means well fitted inhibition curve with a large enough effect; inconclusive means small, poorly fitted or top-dose-only effect; inactive means flat fitted curve, though single readings scatter. No potency is given beside an inconclusive call; the fits are too rough.

Assay: qHTS for Inhibitors of human tyrosyl-DNA phosphodiesterase 1 (TDP1): qHTS in cells in absence of CPT; further: nearly all actives have a fitted effect of over 55% in size
Conditions: DT40 Tdp1-/- hTDP1 cells, no CPT, ATP luminescence, 48 h; activity change, negative = growth inhibition: at 46.2 µM (top of the series)
In short: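 Growth kinetics read by CellTiter-Glo luminescence after ≥48 hr at 37 °C. Cells: DT40 Tdp1-/- stably carrying human TDP1, 400 per well, compound exposure in the absence of CPT (DMSO vehicle).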
On the % scale 0 is the no-effect control and ±100 the full control effect; potency means the concentration at half of the fitted maximal effect; tags describe the fitted curve by direction and shape.

Compound	Potency	activity change, negative = growth inhibition
CSc1ccccc1-c1nnc(-c2ccc(Cl)cc2Cl)o1	inconclusive [inhibitor, single point]	
CCCOc1ccc(C(=O)NCCO)cc1		inactive: -14.8%
O=C(CSc1oc(-c2ccccc2)nc1S(=O)(=O)c1ccccc1)c1ccccc1	active: 14.6 µM	
Cc1[nH][nH]c(=O)c1C(c1ccc(-c2ccc(Cl)c(C(=O)O)c2)o1)c1c(C)[nH][nH]c1=O		inactive: -9.22%
CN(c1ccc(OCC(=O)NCCc2ccccc2)cc1)S(=O)(=O)c1ccc(Cl)cc1	inconclusive [inhibitor, single point]	
CCc1ccc(-n2c(SCc3cccc(F)c3)nc3[nH]ncc3c2=O)cc1	active: 16.4 µM	
CCOC(=O)C1=C(N)OC2=C(C(=O)CC(C)(C)C2)C1c1ccoc1 (stereo unspecified)	inconclusive [inhibitor, single point]	
O=C(Nc1ccc(N2CCN(C(=O)c3ccccc3)CC2)cc1)c1ccc(Br)o1	inconclusive [inhibitor, single point]	
COc1ccccc1CCc1nnc(CCC(=O)NCC[C@@H]2C[C@@H]3C=C[C@H]2C3)o1	active: 18.4 µM	
CC(C)c1nc(SCC(=O)NC2CCCCC2)c2ccccc2n1	inconclusive [inhibitor, single point]	
O=C(c1ccc(S(=O)(=O)NCC2CCCO2)cc1)N1CCN(c2ccccc2F)CC1 (stereo unspecified)		inactive: -10.6%
COC(=O)/C(=N/Nc1ccccc1OC)N1CCCc2ccccc21	inconclusive [inhibitor, single point]	
N=c1c2c3c(sc2ncn1Cc1ccccc1)CCCC3	inconclusive [inhibitor, partial curve]	
CCn1c(=O)cc(OCC(=O)Nc2ccc(C)c(F)c2)c2ccccc21	inconclusive [inhibitor, single point]	
O=C(c1cc2ccccn2n1)N1CCN(c2cccc(C(F)(F)F)c2)CC1	inconclusive [inhibitor, partial curve]	
CCC(=O)Nc1ccc(NC(=S)Nc2ccccc2)cc1		inactive: 9.44%
COc1cccc(-c2cc3nc(C)c(C)c(N4CCN(C(=O)c5ccoc5)CC4)n3n2)c1	active: 8.2 µM	
C/C(=N\N=C1\NC(=O)C(CC(=O)Nc2ccc(C)c(Cl)c2)S1)C(C)C (stereo unspecified)	inconclusive [inhibitor, single point]	
Cc1ccc2nc(NCCc3ccccc3)c3nncn3c2c1	inactive	
O=C1NC(=O)/C(=C\c2ccc(N3CCOCC3)o2)N1		inactive: 13.6%
COC(=O)[C@@H]1C[C@H]2CC[C@H](O)C[C@H]2N1Cc1ccc(C)s1		inactive: 7.35%
Cc1ccc2nc(N(CCCN(C)C)C(=O)c3cc(-c4cccs4)nc4ccccc34)sc2c1	inconclusive [inhibitor, single point]	
Cn1c2ccccc2c(=O)c2c(=O)n(C3CCCCC3)c(-c3cccs3)nc21	inconclusive [inhibitor, single point]	
CC(C)OC(=O)c1cc(C(=O)OC(C)C)cc([N+](=O)[O-])c1		inactive: -6.52% [at 92.5 µM]

Compound	Potency	activity change, negative = growth inhibition
Cc1nn(-c2ccccc2)c(OC(=O)C(C)(C)C)c1Sc1ccccc1		inactive: -20.1%
COc1ccc(CNC(=O)c2ccc3ccccc3n2)cc1	inconclusive [inhibitor, single point]	
COCCN(C(=O)c1snc(C(N)=O)c1N)C(C(=O)NC1CCCCC1)c1cc(OC)c(OC)c(OC)c1 (stereo unspecified)		inactive: -10.1%
CCOc1ccc(Cc2noc3c2C(=O)CC(C)(C)C3)cc1OCC	inconclusive [inhibitor, single point]	
Cc1cc(Cl)ccc1C1=CC(=O)C[C@H](c2ccc(F)cc2)C1		inactive: -27.5%
COC(=O)c1ccc(-n2c(C)cc(C(=O)CCl)c2C)cc1	active: 2.59 µM	
CCN(CC)C(=O)c1cccc(NC(=O)c2cc(-c3ccccn3)nc3ccccc23)c1	active: 16.4 µM	
CCOC(=O)c1ccc(NS(=O)(=O)c2cc3c4c(c2)CCN4C(=O)CC3)cc1	inconclusive [inhibitor, single point]	
CCC(CC)C(C(=O)NC1CCCC1)N1CCN(c2cc(C)nc3ccccc23)CC1 (stereo unspecified)	inconclusive [inhibitor, single point]	
Cc1cc(C(=O)CSc2nnc(-c3ccccc3F)o2)c(C)n1Cc1cccs1	inconclusive [inhibitor, single point]	
Cc1ccc(C(=O)Nc2ccc3oc(-c4ccncc4)nc3c2)c(Cl)c1	inconclusive [inhibitor, partial curve]	
O=C(COc1ccc(-n2ccnc2)cc1)Nc1cccc(Cl)c1	inconclusive [inhibitor, single point]	
CCN1CSC(=S)N(Cc2ccccc2)C1	active: 4.61 µM	
COc1cccc(C2=CC(c3ccc(OC)c(OC)c3)NC(=S)N2)c1 (stereo unspecified)	inconclusive [inhibitor, single point]	
C=CCc1cc(OC)ccc1OCCOCCN1CCc2ccccc2C1	inconclusive [inhibitor, single point]	
COCCN(C(=O)Cc1csc(-c2cccc(Cl)c2)n1)c1c(N)n(Cc2ccccc2)c(=O)[nH]c1=O		inactive: -7.88%
O=S(=O)(NC1CCCCCC1)c1ccc(Br)s1	inconclusive [inhibitor, single point]	
CN1C(=O)C2(NC(=O)c3ccccc3N2C)c2ccccc21 (stereo unspecified)		inactive: 15.2%
CCCC(=O)c1ccc(OC(=O)c2c(-c3ccccc3Cl)noc2C)cc1	inconclusive [inhibitor, single point]	
COc1ccc([C@H]2C[C@@H](n3cc(COC(=O)c4ccccc4)nn3)[C@H](O)CN2C(=O)c2cccs2)cc1	inconclusive [inhibitor, single point]	
CC(=O)N1C(=O)NC2=C(C(=O)CCC2)C1c1cccc([N+](=O)[O-])c1 (stereo unspecified)		inactive: -14.9%
Cc1ccccc1-n1c(=O)cc(N2CCN(C(=O)c3ccco3)CC2)[nH]c1=O		inactive: 10.5%
COc1ccc(CN2C(=O)C(CC(C)C)Nc3ncnc(N4CCN(c5ccccn5)CC4)c32)cc1 (stereo unspecified)	inconclusive [inhibitor, partial curve, poor fit]	
Cc1ccc(NC(=O)c2ccc(S(=O)(=O)N3CCCCC3)cc2)nc1		inactive: -12.5%

Compound	Potency	activity change, negative = growth inhibition
O=C(CC1C=Cc2ccccc2N1C(=O)c1ccccc1)c1ccccc1 (stereo unspecified)		inactive: -111%
O=C(NCCCN1CCOCC1)c1cc(-c2cccc(Br)c2)nc2ccccc12	inconclusive [inhibitor, single point]	
Cc1nc2ccc(S(=O)(=O)N(C)CC(=O)N3CCc4ccccc43)cc2s1	inconclusive [inhibitor, single point]	
Cc1cc(=O)oc2cc(OCC3CC(c4ccc(Br)cc4)=NO3)ccc12 (stereo unspecified)	active: 16.4 µM	
N#Cc1c(NC(=O)CS(=O)(=O)c2ccc(Cl)cc2)sc2c1CCCCC2	inconclusive [inhibitor, single point]	
CC1CN(C(=O)c2cccs2)CCN1C(=O)c1cccs1 (stereo unspecified)		inactive: -0.612%
CCc1ccc(-n2c(=O)c3cccnc3n2CC(=O)Nc2ccccc2C(F)(F)F)cc1	inconclusive [inhibitor, single point]	
O=C(c1cnsn1)N1CCCC(Nc2ccc(F)c(F)c2)C1 (stereo unspecified)		inactive: 2.87%
CC(C)N(CCNC(=O)c1oc(=O)c2ccccc2c1-c1ccccc1)Cc1ccco1	inconclusive [inhibitor, single point]	
O=C(C[C@@H]1C/C=C/CC[C@H](Cc2ccc(F)cc2)C(=O)OCCNC1=O)N[C@H](CO)Cc1ccccc1	active: 11.6 µM	
CCOC(=O)[C@]12CCC=C1N(Cc1cccc3ccccc13)C(=O)[C@H](CC(=O)N1CCC(c3ccccc3)CC1)C2	inconclusive [inhibitor, single point]	
CCOC(=O)[C@H]1[C@H]2COc3cc(OC)ccc3[C@@H]2N2C(=O)N(c3ccc(Cl)cc3)C(=O)[C@@]12C	inconclusive [inhibitor, partial curve]	
C[C@@H]1O[C@H](C2CCCCC2)Cc2[nH][nH]c(=O)c21		inactive: -18.4%
CCCN(CCC)c1nc2ccccc2nc1C(C#N)C(=O)OCCOC (stereo unspecified)	active: 23.1 µM	
CC1C(=O)N2CCCc3cc(S(=O)(=O)N4CCN(c5ccccc5F)CC4)cc1c32 (stereo unspecified)	inconclusive [inhibitor, partial curve]	
CCOC(=O)c1c(NC(C)=O)c2c3c(sc2n1Cc1nc(-c2cccc(C)c2)oc1C)CCCC3	inconclusive [inhibitor, full curve]	
CC(C)OCCCNC(=O)C1CC(=O)N(CCc2ccccc2)C1 (stereo unspecified)		inactive: 5.01%
COc1cc(-c2nc3ccccn3c2/N=C/c2cccc(F)c2)ccc1O	inconclusive [inhibitor, single point]	
CN(C)/C(=N\S(=O)(=O)c1ccccc1)c1ccc(F)cc1		inactive: 8.54%
CCOc1ccccc1NC(=O)NC1CC2CCCC(C1)N2Cc1nnnn1CCc1ccccc1 (stereo unspecified)		inconclusive: -31.9% [inhibitor]
COc1ccc(-c2cc(-c3ccc(Cl)cc3)c(C#N)c(SCC(=O)O)n2)cc1	inconclusive [inhibitor, single point]	
NS(=O)(=O)c1ccc(NCc2c(F)cccc2Cl)cc1	inconclusive [inhibitor, partial curve]	
Cc1ccc2nc(C3CCCCC3)c(Cc3ccccc3C(F)(F)F)n2c1	active: 16.4 µM	
